In article PMC4336329 (PLoS ONE, 2015):
In all, about 310,000 compounds went through this assay and about 2,200 (0.71%) showed an effect of 50% or more. Effects have a minus sign here. The list shows a part of the results.

target: human ether-à-go-go-related gene (hERG) potassium channel (human, UniProt Q12809); test: primary screen, population patch clamp on CHO cells stably expressing hERG
Sequence (Q12809 whole entry, looked up): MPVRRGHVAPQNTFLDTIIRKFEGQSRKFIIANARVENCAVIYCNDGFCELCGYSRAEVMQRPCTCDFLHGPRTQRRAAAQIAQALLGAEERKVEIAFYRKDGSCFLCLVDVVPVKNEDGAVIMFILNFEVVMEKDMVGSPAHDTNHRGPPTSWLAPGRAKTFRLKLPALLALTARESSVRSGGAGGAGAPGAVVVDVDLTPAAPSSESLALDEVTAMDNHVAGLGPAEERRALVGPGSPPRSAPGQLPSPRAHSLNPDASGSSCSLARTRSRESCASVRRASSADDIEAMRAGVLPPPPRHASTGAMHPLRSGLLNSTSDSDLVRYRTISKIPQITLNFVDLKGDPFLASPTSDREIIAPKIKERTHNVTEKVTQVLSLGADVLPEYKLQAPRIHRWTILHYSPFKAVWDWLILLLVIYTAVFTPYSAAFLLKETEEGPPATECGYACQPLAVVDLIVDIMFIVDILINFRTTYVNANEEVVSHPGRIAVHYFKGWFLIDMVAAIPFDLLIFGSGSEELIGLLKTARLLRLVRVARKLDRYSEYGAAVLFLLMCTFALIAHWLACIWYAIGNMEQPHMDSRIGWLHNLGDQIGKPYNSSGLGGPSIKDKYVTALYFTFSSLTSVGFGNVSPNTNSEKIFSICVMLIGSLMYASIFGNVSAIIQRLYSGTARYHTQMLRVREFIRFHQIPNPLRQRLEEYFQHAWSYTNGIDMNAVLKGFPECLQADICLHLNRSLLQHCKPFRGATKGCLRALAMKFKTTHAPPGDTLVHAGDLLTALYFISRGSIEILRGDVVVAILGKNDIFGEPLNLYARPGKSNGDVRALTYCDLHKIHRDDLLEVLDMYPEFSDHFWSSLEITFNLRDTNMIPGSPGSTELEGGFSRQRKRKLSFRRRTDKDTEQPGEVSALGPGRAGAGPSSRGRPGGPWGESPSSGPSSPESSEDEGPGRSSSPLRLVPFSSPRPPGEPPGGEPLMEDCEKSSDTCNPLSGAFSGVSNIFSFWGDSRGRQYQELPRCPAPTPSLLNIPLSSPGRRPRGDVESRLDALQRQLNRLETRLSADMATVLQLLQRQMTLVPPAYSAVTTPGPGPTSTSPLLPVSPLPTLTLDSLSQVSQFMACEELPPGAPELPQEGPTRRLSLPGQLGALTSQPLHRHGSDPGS

Going from `Cc1c(C(=O)N(Cc2ccc(F)cc2)C2CCS(=O)(=O)C2)oc2ccccc12` (stereo not drawn) to `O=C(COC(=O)c1oc2ccccc2c1CSc1ccc(Cl)cc1)NC1CCCC1`, the “hERG current change (%, negative = inhibition) at 1uM” value falls from 12.8% to 9.53%.

Compared with `CCn1ncc(Br)c1C(=O)Nc1cccc(F)c1`, `CCC(C)(C)C(=O)Nc1cccc(Cl)c1C` is higher in “hERG current change (%, negative = inhibition) at 1uM” value: 11.5% for the first, 12.2% for the second.

Compared with `CCOC(=O)N1CCC(n2c(SCC(=O)N3CCCC3)nc3ccccc3c2=O)CC1`, `CCOC(=O)C1CCN(S(=O)(=O)C(F)(F)c2nc3ccccc3s2)CC1` is higher in “hERG current change (%, negative = inhibition) at 1uM” value: 0.488% for the first, 3.95% for the second.

First: Cn1nc(C(=O)Nc2ccccc2N2CCOCC2)ccc1=O
Second: CC1Cc2cc(/C(O)=C3\C(=O)C(=O)N(CCN4CCOCC4)C3c3ccccc3F)ccc2O1 (stereo not drawn)
The “hERG current change (%, negative = inhibition) at 1uM” value of the first is lower: 1.23% for the first, 11.6% for the second.

First: Cc1cc(C)nc(SCCC(=O)N2CCOCC2)n1
Second: Cc1cc2c(c(SCC(=O)NCc3ccc(Cl)cc3)n1)C(=O)OC2
The “hERG current change (%, negative = inhibition) at 1uM” value of the first is higher: 18.6% for the first, 6.4% for the second.

Compared with `CCC(C)C(=O)Nc1nnc(SCC(=O)NC2CCCCC2)s1` (stereo not drawn), `CCOC(=O)NC(Nc1nnc(SCC)s1)(C(F)(F)F)C(F)(F)F` is higher in “hERG current change (%, negative = inhibition) at 1uM” value: 15% for the first, 17% for the second.

First: Cc1ccc(C)c(-n2nnnc2SCC(=O)Nc2cccc(-c3nnc4n3CCCCC4)c2)c1
Second: Cc1ccc(C)c(-c2ccc(=O)n(Cc3cccc(Br)c3)n2)c1
The “hERG current change (%, negative = inhibition) at 1uM” value of the first is lower: 10.2% for the first, 11.8% for the second.

Going from `COc1ccc(S(=O)(=O)Nc2ccc(CC#N)cc2)cc1` to `CCOc1ccc2nc(NS(=O)(=O)c3ccc(NC(C)=O)cc3)sc2c1`, the “hERG current change (%, negative = inhibition) at 1uM” value falls from 16.7% to -4.77%.

Compared with `c1cn(-c2ccc(-c3ccnc4ncnn34)cc2)cn1`, `COc1ccc(N2C(=O)Cc3ccccc3C2=O)cc1` is higher in “hERG current change (%, negative = inhibition) at 1uM” value: 1.91% for the first, 16.3% for the second.

Compared with `CCCNC(=O)CCn1cc(-c2ccc(OC)cc2)nc1CCN`, `CC(C)CCNC(=O)c1ccc(CS(=O)(=O)Cc2ccccc2F)o1` is lower in “hERG current change (%, negative = inhibition) at 1uM” value: 16.1% for the first, 2.63% for the second.

Compared with `N#C/C(=C/c1ccc(O)c(O)c1)C(=O)NCc1ccc(Cl)cc1`, `NS(=O)(=O)c1ccc(CNC(=S)Nc2ccc(Cl)c(Cl)c2)cc1` is lower in “hERG current change (%, negative = inhibition) at 1uM” value: 13.4% for the first, 9.72% for the second.

First: C[N+](C)(C)CC(=O)O.[Cl-]
Second: CC1(C)CC(=O)c2sc(NC(=O)CCS(=O)(=O)c3ccccc3)nc2C1
The “hERG current change (%, negative = inhibition) at 1uM” value of the first is lower: 2.41% for the first, 3.35% for the second.

First: COC(=O)CCN(c1ccccc1)S(=O)(=O)c1cc(-c2cc(C)no2)ccc1OC
Second: CCc1ccccc1NC(=O)[C@@H]1CCC(=O)N1C1OC(=O)c2c1ccc(OC)c2OC (stereo partly drawn)
The “hERG current change (%, negative = inhibition) at 1uM” value of the first is higher: 4.41% for the first, 2.6% for the second.

First: Cc1ccc(NC2CCCN(C(=O)C3CCCCC3)C2)cc1C (stereo not drawn)
Second: COc1c(C)cc(C(=O)C2CCCN(C(=O)c3snnc3C)C2)cc1C (stereo not drawn)
The “hERG current change (%, negative = inhibition) at 1uM” value of the first is higher: 6.76% for the first, 1.3% for the second.

Going from `CC(NC(=O)CN(C)Cc1ccc(Br)cc1)c1ccccc1` (stereo not drawn) to `O=C(NNC(=O)c1n[nH]c(=O)c2ccccc12)c1ccc(Br)cc1`, the “hERG current change (%, negative = inhibition) at 1uM” value falls from 8.27% to -1.26%.

First: COC(=O)c1ccc(C2C(C#N)=C(C)NC3=C2C(=O)CC(C)(C)C3)cc1 (stereo not drawn)
Second: Cc1ccc(C(=O)CSC2=C(C#N)C(c3ccco3)CC(=O)N2)c(C)c1 (stereo not drawn)
The “hERG current change (%, negative = inhibition) at 1uM” value of the first is higher: 8.22% for the first, -4.12% for the second.

Going from `O=C(NN1C(=O)NC2(CCCCC2)C1=O)c1ccc(-c2ccc(Cl)cc2)o1` to `Cc1onc(-c2c(Cl)cccc2Cl)c1C(=O)NCCc1ccc(S(N)(=O)=O)cc1`, the “hERG current change (%, negative = inhibition) at 1uM” value rises from -0.331% to 6.51%.

First: COc1ccc(Cc2nnc(NC(=O)C3CCN(C(=O)c4ccco4)CC3)s2)cc1
Second: COc1ccc(CNC(=O)c2cc3c(=O)n4ccccc4nc3n(Cc3cccnc3)c2=N)cc1
The “hERG current change (%, negative = inhibition) at 1uM” value of the first is higher: 11% for the first, -32.6% for the second.

First: Cc1ccccc1CN1C(=O)C(O)(CC(=O)c2ccncc2)c2ccccc21 (stereo not drawn)
Second: COc1ccc(CNCc2cc3c(C(C)(C)C)nn(-c4ccccc4)c3[nH]c2=O)cc1
The “hERG current change (%, negative = inhibition) at 1uM” value of the first is higher: 13.1% for the first, 13% for the second.

Going from `CCc1cc2cc(C)cc(C)c2[nH]c1=S` to `Cc1ccc(N(C)/N=C/c2ccc(Cl)cc2Cl)nn1`, the “hERG current change (%, negative = inhibition) at 1uM” value falls from 12.6% to 2.55%.

Compared with `CC(C)CCNc1nc2c(cc1C#N)COC(C)(C)C2`, `Cc1onc(-c2ccccc2)c1C(=O)Nc1sc2c(c1C#N)CCC(C)C2` (stereo not drawn) is lower in “hERG current change (%, negative = inhibition) at 1uM” value: 11.6% for the first, 6.72% for the second.

Compared with `COc1cccc(CN(C)C(=O)C2CCN(S(=O)(=O)c3cccs3)CC2)c1OC`, `COc1cc(/C=C2\CC(C(C)(C)C)C/C(=C\c3cc(OC)c(OC)c(OC)c3)C2=O)cc(OC)c1OC` (stereo not drawn) is higher in “hERG current change (%, negative = inhibition) at 1uM” value: 6.6% for the first, 11.4% for the second.

With `CC1(/[N+]([O-])=C/c2cccc(Cl)c2)CCCCC1=O` (stereo not drawn) the “hERG current change (%, negative = inhibition) at 1uM” value was 13.5%.
